Our source for the inhibition values is PubChem BioAssay AID485344 (National Center for Advancing Translational Sciences (NCATS), 2010).

Out of some 340,000 compounds screened, about 6,900 (2%) were called active. No stated cut-off is given here; in the data, active means inhibition above about 30%; inactive means below that, where a call was filed. The entries are a selection whose mix differs from that of the whole data set. The source gives no active or inactive call for entries shown without one.

UniProt P14416, sequence (P14416 whole entry, looked up): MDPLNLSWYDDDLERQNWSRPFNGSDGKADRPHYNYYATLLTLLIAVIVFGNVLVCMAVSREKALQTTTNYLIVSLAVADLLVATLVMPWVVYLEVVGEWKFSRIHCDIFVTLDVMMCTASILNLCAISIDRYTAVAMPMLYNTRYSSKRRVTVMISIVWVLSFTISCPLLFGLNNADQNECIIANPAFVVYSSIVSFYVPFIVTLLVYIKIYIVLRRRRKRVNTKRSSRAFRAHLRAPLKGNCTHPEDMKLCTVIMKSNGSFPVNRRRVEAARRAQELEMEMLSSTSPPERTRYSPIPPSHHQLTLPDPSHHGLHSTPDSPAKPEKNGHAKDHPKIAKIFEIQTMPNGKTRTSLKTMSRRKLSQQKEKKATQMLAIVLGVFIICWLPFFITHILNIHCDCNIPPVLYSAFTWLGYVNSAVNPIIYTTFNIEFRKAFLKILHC

The assay addresses D(2) dopamine receptor (Homo sapiens) (UniProt P14416). Briefly: HTS Assay for Allosteric Antagonists of the Human D2 Dopamine Receptor: Primary Screen for Antagonists. Further: 0% is about no effect. The settings on record: HEK293 TREx D2 cells, calcium flux, dopamine EC80; at 10 µM; stronger effect = higher value. The procedure, abridged:
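Cells plated overnight at 30 C with tetracycline; no-wash calcium dye, 30–90 min RT; 10 s baseline; compound pinned; 180 s read; EC80 dopamine added; another 180 s read.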
(In general: A change in cytosolic calcium serves as a functional read-out for many receptors and channels.)
As to `Cc1cc(Cl)ccc1OCC(=O)N1CCC(c2nc3ccccc3s2)CC1`, the inhibition turned out to be 1.91%.

With `CC(=O)c1ccc(NC(=O)CN(C)S(=O)(=O)c2cnc[nH]2)cc1`, the inhibition was -1.7%.

With `O=C(Nc1cccc(-c2nc3ccccc3o2)c1)C(F)(F)F`, the inhibition came to 15.9%.

Consider `Cc1ccc(OCCSc2nc(C)c(Cc3ccccc3)c(=O)[nH]2)cc1`, for which the inhibition is -8.96%.

Turning to `Brc1cccc(CN2CCN(c3ncccn3)CC2)c1`, the inhibition is active: 84.7%.

Consider `Cc1cc(C)c(NC(=O)CSc2nncn3c2cc2oc(C)cc23)c(C)c1`, for which the inhibition is -9.97%.

For the compound `Cc1ccn2c(Nc3ccc(C(C)C)cc3)c(-c3cccnc3)nc2c1`, the inhibition turned out to be 16.3%.

On to `Cc1cc(-c2ccccc2)n2nc(-c3ccccc3)cc2n1`, for which the inhibition was found to be 8.99%.

For the compound `Cc1c(C(=O)O)oc2c1-c1nn(Cc3ccc(Cl)cc3)cc1CC2`, the inhibition amounted to 0.968%.

In the case of `CN(C)CCNC(=O)C(=O)NCC(c1ccc2c(c1)OCO2)N1CCOCC1` (configuration not stated), the inhibition is -12.2%.

With `COc1ccccc1N1CCN(C2CCCN(Cc3ccc(Cl)cc3)C2)CC1` (configuration not stated), the inhibition was active: 37.1%.

Take `Cc1ccc2cccc(NC(=O)C(C)Oc3ccc(Cl)cc3Cl)c2n1` (configuration not stated): the inhibition was found to be 3.39%.

Consider `CCOc1ccc(C(c2c(O)cc(C)n(Cc3ccco3)c2=O)N2CCCCC2)cc1` (configuration not stated), for which the inhibition came out at 0.215%.

`COc1ccccc1C(=O)Nc1c(C(=O)Nc2ccccc2F)oc2ccccc12`: the inhibition is 7.24%.

Turning to `Cc1ccc(NC(=O)CC2Sc3ccc(C(F)(F)F)cc3NC2=O)cc1` (configuration not stated), the inhibition is 13.8%.

Take `COc1cccc(CNS(=O)(=O)c2ccc3c(c2)C(C(C)C)C(=O)N3)c1` (configuration not stated): the inhibition is -4.39%.

For the compound `COc1ccc(N2CCN(C(c3ccccc3F)c3sc4nc(-c5ccco5)nn4c3O)CC2)cc1` (configuration not stated), the inhibition turned out to be 27.7%.

Regarding `CCOC(=O)c1c(NC(=O)COc2cccc(C)c2C)sc(C(C)=O)c1C`, the inhibition is -5.97%.

For the compound `COc1ccc(NC(=O)CN2C(=O)COc3ccc(S(=O)(=O)N4CCCCC4)cc32)cc1OC`, the inhibition is -16%.

As for `CCCCC(=O)N1CCc2cc(OC)c(OC)cc2C1COc1ccc(OC)cc1` (configuration not stated), the inhibition is -1.06%.

On to `Cc1cc(C)c2c(c1)c(C)cc1nnc(SCC(=O)c3ccc(F)cc3)n12`, for which the inhibition was 3.14%.

As for `COC(=O)c1ccccc1NC(=O)Cn1c(=O)cc(C)c2c(C)nn(C)c21`, the inhibition came to 13.4%.

As for `Cc1ccc(C)c(Cn2c(C(=O)O)c(CNCc3cccs3)c3ccccc32)c1`, the inhibition worked out at 22.1%.

`COc1ccc(CCNc2nc(SCc3ccc(Cl)cc3)nc3ccccc23)cc1OC`: the inhibition is -6.83%.

`Cc1cccc(C(=O)Nc2ccc3nc(SCCOc4ccccc4)sc3c2)c1`: the inhibition was -13.8%.

Consider `CCc1cnc2c(c1SCC(=O)NCc1ccc(F)cc1)c(=O)n(C)c(=O)n2C`, for which the inhibition amounted to 19.1%.

Take `COc1ccc(C2C=C(c3ccccc3)Nc3nc(NC(=O)/C=C/c4ccccc4Cl)nn32)cc1` (configuration not stated): the inhibition came to 10.3%.

For the compound `Nc1ncc(S(=O)(=O)Nc2ccc(F)cc2F)cn1`, the inhibition came out at 0.88%.

On to `Cc1cc(OCCN2CCCCC2)nc2ccccc12`, for which the inhibition was active: 30.6%.

Take `Nc1c(C(=O)Nc2cccc(F)c2)c2ccccn2c1C(=O)c1ccccc1`: the inhibition is 2.66%.

Regarding `COC(=O)C1CCN(Cc2ccc(C)cc2)CC1`, the inhibition was active: 68.8%.

Take `CCOc1ccc(CNC(=O)CS(=O)(=O)c2cccc3nsnc23)cc1`: the inhibition worked out at 3.58%.

For the compound `Cc1cc2nc(-c3ccc(NC(=O)c4ccccc4F)cc3)oc2cc1C`, the inhibition is -8.84%.

`COc1ccccc1-c1noc(-c2ccc(NC3CCCC3)c([N+](=O)[O-])c2)n1`: the inhibition was found to be 1.04%.

On to `CC(C)(C)NC(=O)C1CCCN(S(=O)(=O)c2ccc(-n3cnnn3)cc2)C1` (configuration not stated), for which the inhibition was active: 32%.

With `CC1=CC2=NC(=O)CC(C)(C(=O)N(CC(=O)NC3CCCC3)c3cc(C)cc(C)c3)N2C=C1` (configuration not stated), the inhibition is active: 60.2%.

On to `COc1ccc(OC)c(CNS(=O)(=O)c2ccc(-c3coc(C)n3)cc2)c1`, for which the inhibition is -21.4%.

Turning to `CCC(=O)C1=C(c2ccc(OC)c(OC)c2)N(C(=O)CC)n2c(nnc2-c2ccc(C)cc2)S1`, the inhibition is -13.2%.

With `CC(=O)c1ccc(N2CCN(c3ccc4cc(S(=O)(=O)N5CCCCC5)ccc4n3)CC2)cc1`, the inhibition is -5.53%.

In the case of `CCOC(=O)c1ccc(NC(=O)CSc2nc3ccccc3c(=O)n2CCC(=O)NC2CCCCC2)cc1`, the inhibition was -27.8%.

As to `COc1ccc(-c2nc(CS(=O)(=O)CC(=O)NCCc3ccc(C)cc3)c(C)o2)cc1`, the inhibition turned out to be 11.5%.

On to `COc1ccc(C)cc1NC(=O)CC1NCCNC1=O` (configuration not stated), for which the inhibition is -1.3%.

For `Cc1cc(=O)n(Cc2ccccc2)c2c1c(C)nn2C`, the inhibition turned out to be 12%.

With `CC(C)N(CCCNC(=O)Cn1ncc2c([nH]c3ccccc32)c1=O)Cc1ccccc1`, the inhibition is -22.4%.

Regarding `COCCNC(=O)c1ccc2nc(Cc3ccccc3)oc2c1`, the inhibition is -14.2%.

For `Cc1ccc(Nc2nnc(-c3ccc(C)c(S(=O)(=O)N4CCOCC4)c3)c3ccccc23)cc1`, the inhibition was determined as 0.921%.

For the compound `OCCCN1CCN(CCCOc2ccccc2-c2ccccc2)CC1`, the inhibition is active: 53.3%.

On to `Cc1cc(NC(=O)CCC(=O)N(Cc2ccco2)C2(C(=O)NC3CCCC3)CCCCC2C)no1` (configuration not stated), for which the inhibition is active: 33.7%.

Take `Cc1cc(C)c2c(=O)cc(C(=O)Nc3sc4c(c3C(=O)NCC3CCCO3)CCCC4)oc2c1` (configuration not stated): the inhibition worked out at 6.96%.

As for `CCCCCn1c(CN2CCN(c3ccc(OC)cc3)CC2)nc2c1c(=O)[nH]c(=O)n2C`, the inhibition is -9.91%.

As for `Cc1ccc(Cl)cc1NC(=O)Nc1cccc(OCc2cc(=O)n3ccccc3n2)c1`, the inhibition came out at 5.72%.

For `CC(C)(C)NCCOc1ccc2ccccc2c1`, the inhibition was active: 45.4%.

As to `COc1ccc(-n2c(-c3ccco3)nc3c(cnn3-c3ccccc3Cl)c2=O)cc1`, the inhibition was -8.36%.

For the compound `Cc1nn(C)c2c1c(-c1ccccc1)cc(=O)n2CC(=O)NC(C)c1ccccc1` (configuration not stated), the inhibition was -4.78%.

For the compound `CCCOc1ccc(C2c3c(-c4c(C)cc(C)cc4O)n[nH]c3C(=O)N2CCO)cc1` (configuration not stated), the inhibition is 3.89%.

In the case of `O=C(Cn1c(=O)n(Cc2ccccc2)c(=O)c2sc3ccccc3c21)Nc1ccccc1`, the inhibition is -3.62%.

For the compound `Cc1ccc(Cl)cc1NC(=O)c1sc(-n2nc(C)c(Cc3ccc4c(c3)OCO4)c2C)nc1C`, the inhibition was -21.9%.

For the compound `CCN1CCOC(=O)C1CC(=O)Nc1ccc(Br)cc1` (configuration not stated), the inhibition was 3.89%.

On to `CCOc1ccc(-c2cc3nc(C4CCN(C(=O)OC(C)(C)C)CC4)c(C(=O)Nc4cc(OC)ccc4OC)cn3n2)cc1`, for which the inhibition is 6.24%.

As to `O=C(NCC(c1ccco1)S(=O)(=O)c1cccs1)c1ccc(F)c(F)c1` (configuration not stated), the inhibition was -19.4%.

On to `CCc1ccccc1NC(=O)N1CCCn2nc(C)cc21`, for which the inhibition was -3.19%.

Take `Cn1c(N)c(C(=O)/C=C/c2ccccc2)c(=O)[nH]c1=O`: the inhibition is active: 53.6%.

Turning to `Cc1nc(-c2ccccc2)sc1-c1ccc(SCC(=O)NCc2ccccc2Cl)nn1`, the inhibition turned out to be 7.55%.

Regarding `NC(N)=NC(N)=Nc1ccc2ccccc2c1`, the inhibition was active: 32.9%.

On to `CC1CCN(c2nn3c(=O)c(C(=O)NC(C)C)cnc3s2)CC1`, for which the inhibition is 1.25%.

For `N#Cc1nc(-c2ccc(COc3ccc(Cl)cc3)o2)oc1N1CCC(C(N)=O)CC1`, the inhibition worked out at 5.45%.

Consider `O=C(CSc1cn(CC(=O)N2CCCCC2)c2ccccc12)Nc1ccccc1`, for which the inhibition was determined as 0.663%.

Consider `COc1ccc(OC)c(C2=NS(=O)(=O)N(C)C(C(=O)Nc3ccc(F)cc3F)=C2)c1`, for which the inhibition was 8.3%.

As to `Cc1ccc(C)c(NC(=O)C2CCCN(c3ncnc4onc(C)c34)C2)c1` (configuration not stated), the inhibition amounted to 5.08%.

Regarding `COc1cccc(CNC(=O)c2cccc(-n3c(C)nc4cccnc43)c2)c1OC`, the inhibition was 5.11%.

Regarding `Cc1cc(=O)n(Cc2ccc(Cl)cc2)c2c1c(C)nn2-c1ccccc1`, the inhibition was -5.1%.

On to `COc1ccc(OC)c(S(=O)(=O)NCCS(=O)(=O)N2CCN(c3ccccc3)CC2)c1`, for which the inhibition came out at 20.6%.

For the compound `O=C(Cn1c(=O)n(-c2ccccc2)c(=O)c2c3c(sc21)CCCC3)Nc1ccc(F)cc1F`, the inhibition turned out to be 7.55%.

`COc1cc(NC(=O)CCc2c(C)nc3c(-c4ccc(F)cc4)c(C)nn3c2C)cc(OC)c1OC`: the inhibition was -21.3%.

For `COc1ccc(CNC(=O)C(Cc2ccccc2)NS(=O)(=O)c2ccc3c(c2)CCN3C(C)=O)cc1` (configuration not stated), the inhibition is -8.94%.

Regarding `CC1=C(C(=O)Nc2ccccc2)C(c2cccs2)n2nnnc2N1` (configuration not stated), the inhibition was active: 35.8%.

As for `CCCSc1ncc(Cl)c(C(=O)N2CCN(c3cccc(Cl)c3)CC2)n1`, the inhibition is 0.421%.

Turning to `CCOc1ccc(NC(=O)CC2C(=O)N(c3ccc(OC)cc3)C(=O)N2C2CCCCC2)cc1` (configuration not stated), the inhibition came out at 17.2%.

For the compound `CCC(=O)N1CCc2cc(CNS(=O)(=O)c3ccc(C(C)C)cc3)ccc21`, the inhibition was -12.2%.

`COC(=O)c1ccc2c(=O)n(CCCCCC(=O)N3CCN(c4cc(C)ccc4C)CC3)c(=O)[nH]c2c1`: the inhibition was 16.4%.

As for `COc1cc2nc(NCCc3ccccc3)n3nc(-c4cccnc4)nc3c2cc1OC`, the inhibition is 2.12%.

As for `Cc1nn(-c2ccccc2)c2sc(C(=O)Nc3cccc(Cl)c3)cc12`, the inhibition was 5.01%.

`CCOC(=O)c1c(NC(=O)/C=C/c2ccc(OCC)cc2)sc(C(C)=O)c1C`: the inhibition is -14.5%.

Take `Cc1ccc(C)c(N2CCN(C(=O)CCS(=O)(=O)c3cc(Br)cc4c3N(C(=O)C3CC3)CC4)CC2)c1`: the inhibition was found to be 3.48%.

As for `Cc1nc2c3ccccc3nc(NNC(=O)CCC(=O)N3CCN(c4cc(Cl)ccc4C)CC3)n2n1`, the inhibition was 0.948%.

With `CCc1cccc(NC(=O)CSc2nc3ccccc3nc2N2CCCCC2)c1`, the inhibition came out at 28.5%.

Regarding `COc1ccc(OCC(=O)Nc2cccc(C(=O)OCc3cc(=O)n4nc(C)sc4n3)c2)cc1`, the inhibition came to 7.32%.

With `N#Cc1ccccc1COC(=O)c1ccc2c(c1)OCCO2`, the inhibition is active: 30.7%.

Regarding `COCc1cc(C)nc2sc(C(=O)Nc3ccc(C(C)=O)cc3)c(N)c12`, the inhibition was found to be 5%.

As for `CCOc1ccc(NC(=O)CC2C(=O)N(c3ccccc3)C(=O)N2C2CCCC2)cc1` (configuration not stated), the inhibition was -1.55%.

Regarding `Cc1ccc(CNC(=O)Cn2nc(N3CCN(c4ccccc4)CC3)ccc2=O)cc1`, the inhibition is 2.82%.

As to `Cc1cccc(N2CCN(C(=O)c3cnn(-c4ccc(F)cc4F)c3C3CCN(C(=O)OC(C)(C)C)CC3)CC2)c1C`, the inhibition was -9.73%.

As to `CCCn1c2ccccc2c2cnn(CC(=O)N(CC)c3cc(C)ccc3C)c(=O)c21`, the inhibition amounted to 24.6%.

In the case of `CCCNC(=O)CSc1c2c(nc3ccc(Cl)cc13)CCCC2`, the inhibition came to 0.12%.

With `CCOC(=O)c1cc2c(=O)n3ccccc3nc2n(Cc2ccco2)c1=NC(=O)c1cccc(C)c1`, the inhibition was -0.604%.

Regarding `CCOc1ccccc1NC(=O)c1cc2cc3cc(C)ccc3nc2s1`, the inhibition came out at 14.4%.

On to `COc1ccc(-n2c(SCC(=O)NCc3ccco3)nc3c([nH]c4ccccc43)c2=O)cc1`, for which the inhibition is -10.7%.

For orientation: inhibition means the change of the read-out against control, counted positive when it falls.
